The results in this text go back to patent US20100260668A1 (published 2010).

In one assay the target is T1, VEGF.
T1 construct: Bought reagent
T1 sequence (looked up): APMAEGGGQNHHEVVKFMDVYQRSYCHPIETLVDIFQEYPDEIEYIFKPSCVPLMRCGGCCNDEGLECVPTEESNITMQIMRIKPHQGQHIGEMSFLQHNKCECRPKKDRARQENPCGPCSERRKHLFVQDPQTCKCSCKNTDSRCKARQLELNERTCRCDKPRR
The experiment in a line: Biacore SPR. Background: Surface plasmon resonance follows binding to a sensor surface in real time, without labels.

For the next assay, the target named is T2, PlGF.
T2 construct: bought antigen coated on the ELISA plate; also called Placental GF
T2 sequence (looked up): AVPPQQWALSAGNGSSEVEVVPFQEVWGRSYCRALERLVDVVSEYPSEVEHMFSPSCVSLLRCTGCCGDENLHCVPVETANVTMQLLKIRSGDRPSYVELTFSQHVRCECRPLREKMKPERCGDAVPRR
Description: direct bind ELISA, N-terminal VD. For orientation: ELISA stands for enzyme-linked immunosorbent assay.

Assay [1] addresses biotin-labeled human IGF2 (human, biotin-labeled). The experiment in a line: capture ELISA, DVD-Ig captured by anti-human Fc, biotin-labeled IGF2; N-terminal VD.
The target of assay [2] is biotin-labeled human IGF1 (human, biotin-labeled). The experiment in a line: capture ELISA, DVD-Ig captured by anti-human Fc, biotin-labeled IGF1; N-terminal VD.
In another assay the target is T3, IGF-2.
T3 construct: Bought reagent
The experiment in a line: Biacore SPR.

A further assay has as its target T4, IGF-I.
T4 construct: Bought reagent; also called IGF1
Description: Biacore SPR.

Assay [3] addresses T5, ErbB3 (ErbB3 ECD/FC Chimera-His tag, R&D 348-RB-050).
T5 construct: extracellular domain; Bought antigen coated on the ELISA plate
The experiment in a line: direct bind ELISA, coated antigen; N-terminal VD of DVD-Ig.

For a further assay, the target named is T6, IGF1R ECD.
T6 construct: extracellular domain; Bought reagent
Description: Biacore SPR.

Broadly, the Kd is the free concentration of one partner at which half of the binding sites on the other are occupied at equilibrium, for simple one-to-one binding. The low end stands for higher affinity, the high end for lower affinity. One may read the koff as the rate constant with which the complex falls apart. Low values mean slow dissociation, high ones fast dissociation. The term kon denotes a measure of how fast the partners come together. A higher kon goes with faster complex formation. The term EC50 denotes the concentration at which the effect is half-maximal. A lower EC50 goes with an effect from little substance.

B1: DVD037 (bispecific antibody, human IgG1, kappa)
heavy: EVQLVESGGGLVQPGGSLRLSCAASGYTFTNYGMNWVRQAPGKGLEWVGWINTYTGEPTYAADFKRRFTFSLDTSKSTAYLQMNSLRAEDTAVYYCAKYPHYYGSSHWYFDVWGQGTLVTVSSASTKGP[omitted - about 450 residues with a human IgG1 Fc]
light: DIQMTQSPSSLSASVGDRVTITCSASQDISNYLNWYQQKPGKAPKVLIYFTSSLHSGVPSRFSGSGSGTDFTLTISSLQPEDFATYYCQQYSTVPWTFGQGTKVEIKRTVAA[omitted - about 200 residues]
notes: N-terminal VD VEGF, C-terminal VD HER-2; also called DVD037H; DVD037L
In the assay with VEGF, B1 yielded a Kd below 0.00225 nM, a koff below 1e-06 s⁻¹ and a kon of 445000 M⁻¹ s⁻¹.

B2: DVD547 (bispecific antibody, human IgG1, kappa)
heavy: QVQLKQSGPGLVQPSQSLSITCTVSGFSLTTYGIHWVRQSPGKGLEWLGVMWSGGDTDYDAAFISRLSISKDNSKSQVFFKMNSLQANDTGIYYCARYRFYGMDYWGQGTSVTVSSASTKGP[omitted - about 450 residues with a human IgG1 Fc]
light: AIQMTQSSSSFSVSLGDRVTITCKASEDIYNRFAWYQQKPGNAPRLLISGAASLEAGVPSRFSGSGSGQDYTLSITSLQTEDVATYYCQQYWSTPWTFGGGTKLEIKRTVAA[omitted - about 200 residues]
notes: HC linker short, LC linker short; also called DVD-Ig DVD547
In the assay with PlGF, B2 showed an EC50 of 0.14 nM.

B3: DVD563 (bispecific antibody, human IgG1, kappa)
heavy: QVQLKQSGPGLVQPSQSLSITCTVSGFSLTTYGIHWVRQSPGKGLEWLGVMWSGGDTDYDAAFISRLSISKDNSKSQVFFKMNSLQANDTGIYYCARYRFYGMDYWGQGTSVTVSSASTKGPSVFPLAP[omitted - about 450 residues with a human IgG1 Fc]
light: AIQMTQSSSSFSVSLGDRVTITCKASEDIYNRFAWYQQKPGNAPRLLISGAASLEAGVPSRFSGSGSGQDYTLSITSLQTEDVATYYCQQYWSTPWTFGGGTKLEIKRTVAA[omitted - about 200 residues]
notes: HC linker long, LC linker short; also called DVD-Ig DVD563
Turning to B3, in the assay with PlGF, the EC50 turned out to be 0.21 nM.

B4: DVD571 (bispecific antibody, human IgG1, kappa)
heavy: QVQLKQSGPGLVQPSQSLSITCTVSGFSLTTYGIHWVRQSPGKGLEWLGVMWSGGDTDYDAAFISRLSISKDNSKSQVFFKMNSLQANDTGIYYCARYRFYGMDYWGQGTSVTVSSASTKGP[omitted - about 450 residues with a human IgG1 Fc]
light: AIQMTQSSSSFSVSLGDRVTITCKASEDIYNRFAWYQQKPGNAPRLLISGAASLEAGVPSRFSGSGSGQDYTLSITSLQTEDVATYYCQQYWSTPWTFGGGTKLEIKRTVAAPSVFIFP[omitted - about 200 residues]
notes: HC linker short, LC linker long; also called DVD-Ig DVD571
Molecule B4 showed an EC50 with PlGF of 33.1 nM.

B5: DVD030 (bispecific antibody, human IgG1, kappa)
heavy: QVQLVQSGAEVKKPGASVKVSCKASGYTFTSYDINWVRQATGQGLEWMGWMNPNSGNTGYAQKFQGRVTMTRNTSISTAYMELSSLRSEDTAVYYCARDPYYYYYGMDVWGQGTTVTVSSASTKGP[omitted - about 450 residues with a human IgG1 Fc]
light: QSVLTQPPSVSAAPGQKVTISCSGSSSNIENNHVSWYQQLPGTAPKLLIYDNNKRPSGIPDRFSGSKSGTSATLGITGLQTGDEADYYCETWDTSLSAGRVFGGGTKLTVLGQPKAA[omitted - about 200 residues]
notes: also called IGF1,2 / HER-2 DVD-Ig; DVD030H
Regarding B5, the EC50 in assay [1] came out at 5.5 nM; in assay [2] it was 1.8 nM.

B6: DVD030 (bispecific antibody, human IgG1, kappa)
heavy: QVQLVQSGAEVKKPGASVKVSCKASGYTFTSYDINWVRQATGQGLEWMGWMNPNSGNTGYAQKFQGRVTMTRNTSISTAYMELSSLRSEDTAVYYCARDPYYYYYGMDVWGQGTTVTVSSASTKGP[omitted - about 450 residues with a human IgG1 Fc]
light: QSVLTQPPSVSAAPGQKVTISCSGSSSNIENNHVSWYQQLPGTAPKLLIYDNNKRPSGIPDRFSGSKSGTSATLGITGLQTGDEADYYCETWDTSLSAGRVFGGGTKLTVLGQPKAA[omitted - about 200 residues]
notes: also called DVD030H; DVD030L
In the assay with IGF-2, B6 showed a Kd of 0.00234 nM, a koff of 1.98e-05 s⁻¹ and an on-rate constant (kon) of 8.46e+06 M⁻¹ s⁻¹. For the same molecule, in the assay with IGF-I, binding was characterised by a dissociation constant (Kd) of 0.292 nM, the koff came out at 0.00116 s⁻¹ and the kon stood at 3.96e+06 M⁻¹ s⁻¹.

B7: DVD403 (bispecific antibody, human IgG1, kappa)
heavy: EVQLVESGGGLVQPGGSLRLSCAASGFTFSIYSMNWVRQAPGKGLEWVSYISSSSSTIYYADSVKGRFTISRDNAKNSLYLQMNSLRDEDTAVYYCARDRGDFDAFDIWGQGTMVTVSSASTKGPSVFPLAP[omitted - about 450 residues with a human IgG1 Fc]
light: DIQMTQSPSSLSASVGDRVTITCQASQDITNYLNWYQQKPGKAPKLLIYDASNLETGVPSRFSGSGSGTDFTFTISSLQPEDIATYNCQQCENFPITFGQGTRLEIKRTVAA[omitted - about 200 residues]
notes: DVD-Ig; HC linker long, LC linker short; also called DVD403H; DVD403L
With B7, the EC50 in assay [3] came to 1.03 nM.

B8: DVD685 (bispecific antibody, human IgG1, kappa)
heavy: EVQLVESGGGLVQPGGSLRLSCAASGFTFSIYSMNWVRQAPGKGLEWVSYISSSSSTIYYADSVKGRFTISRDNAKNSLYLQMNSLRDEDTAVYYCARDRGDFDAFDIWGQGTMVTVSSASTKGP[omitted - about 450 residues with a human IgG1 Fc]
light: DIQMTQSPSSLSASVGDRVTITCQASQDITNYLNWYQQKPGKAPKLLIYDASNLETGVPSRFSGSGSGTDFTFTISSLQPEDIATYNCQQCENFPITFGQGTRLEIKRTVAA[omitted - about 200 residues]
notes: DVD-Ig; HC linker short, LC linker short; also called DVD685H; DVD685L
The molecule B8 returned an EC50 in assay [3] of 0.48 nM.

B9: DVD411 (bispecific antibody, human IgG1, kappa)
heavy: EVQLLESGGGLVQPGGSLRLSCAASGFTFSHYVMAWVRQAPGKGLEWVSSISSSGGWTLYADSVKGRFTISRDNSKNTLYLQMNSLRAEDTAVYYCTRGLKMATIFDYWGQGTLVTVSSASTKGP[omitted - about 450 residues with a human IgG1 Fc]
light: QSALTQPASVSGSPGQSITISCTGTSSDVGSYNVVSWYQQHPGKAPKLIIYEVSQRPSGVSNRFSGSKSGNTASLTISGLQTEDEADYYCCSYAGSSIFVIFGGGTKVTVLGQPKAA[omitted - about 200 residues]
notes: DVD-Ig; HC linker short, LC linker short; also called DVD411H; DVD411L
Turning to B9, in assay [3], it took 4.92 nM to reach a half-maximal effect (EC50). Against the preceding molecule, the EC50 is about 10-fold higher.

B10: DVD419 (bispecific antibody, human IgG1, kappa)
heavy: EVQLLESGGGLVQPGGSLRLSCAASGFTFSHYVMAWVRQAPGKGLEWVSSISSSGGWTLYADSVKGRFTISRDNSKNTLYLQMNSLRAEDTAVYYCTRGLKMATIFDYWGQGTLVTVSSASTKGPSVFPLAP[omitted - about 450 residues with a human IgG1 Fc]
light: QSALTQPASVSGSPGQSITISCTGTSSDVGSYNVVSWYQQHPGKAPKLIIYEVSQRPSGVSNRFSGSKSGNTASLTISGLQTEDEADYYCCSYAGSSIFVIFGGGTKVTVLGQPKAA[omitted - about 200 residues]
notes: DVD-Ig; HC linker long, LC linker short; also called DVD419H; DVD419L
In assay [3], B10 returned an EC50 of 32.4 nM.

B11: DVD423 (bispecific antibody, human IgG1, kappa, lambda)
heavy: EVQLLESGGGLVQPGGSLRLSCAASGFTFSHYVMAWVRQAPGKGLEWVSSISSSGGWTLYADSVKGRFTISRDNSKNTLYLQMNSLRAEDTAVYYCTRGLKMATIFDYWGQGTLVTVSSASTKGP[omitted - about 450 residues with a human IgG1 Fc]
light: QSALTQPASVSGSPGQSITISCTGTSSDVGSYNVVSWYQQHPGKAPKLIIYEVSQRPSGVSNRFSGSKSGNTASLTISGLQTEDEADYYCCSYAGSSIFVIFGGGTKVTVLGQPKAAPSVTLFP[omitted - about 200 residues]
notes: DVD-Ig; HC linker short, LC linker long; also called DVD423H; DVD423L
Molecule B11 had an EC50 in assay [3] of 4.69 nM.

B12: DVD032 (bispecific antibody, human IgG1, kappa)
heavy: EVQLLESGGGLVQPGGSLRLSCTASGFTFSSYAMNWVRQAPGKGLEWVSAISGSGGTTFYADSVKGRFTISRDNSRTTLYLQMNSLRAEDTAVYYCAKDLGWSDSYYYYYGMDVWGQGTTVTVSSASTKGP[omitted - about 450 residues with a human IgG1 Fc]
light: DIQMTQFPSSLSASVGDRVTITCRASQGIRNDLGWYQQKPGKAPKRLIYAASRLHRGVPSRFSGSGSGTEFTLTISSLQPEDFATYYCLQHNSYPCSFGQGTKLEIKRTVAA[omitted - about 200 residues]
notes: N-terminal VD IGF1R, C-terminal VD HER-2; also called DVD032H; DVD032L
In the assay with IGF1R ECD, B12 gave a Kd of 0.829 nM, a koff of 4.23e-05 s⁻¹ and a kon of 51000 M⁻¹ s⁻¹.

B13: DVD407 (bispecific antibody, human IgG1, kappa)
heavy: EVQLVESGGGLVQPGGSLRLSCAASGFTFSIYSMNWVRQAPGKGLEWVSYISSSSSTIYYADSVKGRFTISRDNAKNSLYLQMNSLRDEDTAVYYCARDRGDFDAFDIWGQGTMVTVSSASTKGP[omitted - about 450 residues with a human IgG1 Fc]
light: DIQMTQSPSSLSASVGDRVTITCQASQDITNYLNWYQQKPGKAPKLLIYDASNLETGVPSRFSGSGSGTDFTFTISSLQPEDIATYNCQQCENFPITFGQGTRLEIKRTVAAPSVFIFP[omitted - about 200 residues]
notes: DVD-Ig; HC linker short, LC linker long; also called DVD407H; DVD407L
For B13, a half-maximal effect in assay [3] (EC50) was put at 2.98 nM.

B14: DVD415 (bispecific antibody, human IgG1, kappa, lambda)
heavy: EVQLLESGGGLVQPGGSLRLSCAASGFTFSHYVMAWVRQAPGKGLEWVSSISSSGGWTLYADSVKGRFTISRDNSKNTLYLQMNSLRAEDTAVYYCTRGLKMATIFDYWGQGTLVTVSSASTKGPSVFPLAP[omitted - about 450 residues with a human IgG1 Fc]
light: QSALTQPASVSGSPGQSITISCTGTSSDVGSYNVVSWYQQHPGKAPKLIIYEVSQRPSGVSNRFSGSKSGNTASLTISGLQTEDEADYYCCSYAGSSIFVIFGGGTKVTVLGQPKAAPSVTLFP[omitted - about 200 residues]
notes: DVD-Ig; HC linker long, LC linker long; also called DVD415H; DVD415L
Regarding B14, the response in assay [3] was half-maximal at 13 nM (EC50).
